Experimental data published in publication PMC8514785.
Changes are numbered by the printed parent chain. Names and notes keep the numbering of the source. These are yes or no findings as the source states them, for the method shown. In cells and extracts the contact can be indirect. Some binding calls cover weakened binding; strength is not graded here. For some assays here: Sequences can lack the tags named with a protein. Blank lines part the entries; values can stand above or below the molecule they belong to.

The chains behind the UniProt entries cited, without tags or fusion partners.
UniProt P05804: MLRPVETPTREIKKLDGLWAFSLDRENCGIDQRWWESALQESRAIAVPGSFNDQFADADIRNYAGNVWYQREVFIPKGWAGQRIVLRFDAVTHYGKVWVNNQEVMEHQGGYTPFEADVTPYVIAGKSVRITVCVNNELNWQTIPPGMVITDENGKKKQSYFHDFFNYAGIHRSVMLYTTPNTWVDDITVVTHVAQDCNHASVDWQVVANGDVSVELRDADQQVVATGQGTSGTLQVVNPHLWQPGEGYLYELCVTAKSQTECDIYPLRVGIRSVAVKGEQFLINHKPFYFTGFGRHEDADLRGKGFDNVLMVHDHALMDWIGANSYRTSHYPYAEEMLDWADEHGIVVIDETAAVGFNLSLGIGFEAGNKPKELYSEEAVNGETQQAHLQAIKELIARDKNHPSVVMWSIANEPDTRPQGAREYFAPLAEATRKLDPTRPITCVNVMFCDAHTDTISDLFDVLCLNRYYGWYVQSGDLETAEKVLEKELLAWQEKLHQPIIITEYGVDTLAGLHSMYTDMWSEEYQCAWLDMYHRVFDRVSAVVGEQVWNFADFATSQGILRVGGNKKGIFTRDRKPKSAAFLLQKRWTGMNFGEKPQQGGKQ

Legend:
[1] = molecular target: T1, nVenus-SRFR1 (SUPPRESSOR OF rps4-RLD1) (Arabidopsis thaliana) (UniProt F4JS25); experiment: split reporter; BiFC in N. benthamiana leaves; Agrobacterium strains with the BiFC vectors mixed at equal density and infiltrated; imaged 48 hpi by confocal microscopy (YFP reconstitution)
T1 sequence: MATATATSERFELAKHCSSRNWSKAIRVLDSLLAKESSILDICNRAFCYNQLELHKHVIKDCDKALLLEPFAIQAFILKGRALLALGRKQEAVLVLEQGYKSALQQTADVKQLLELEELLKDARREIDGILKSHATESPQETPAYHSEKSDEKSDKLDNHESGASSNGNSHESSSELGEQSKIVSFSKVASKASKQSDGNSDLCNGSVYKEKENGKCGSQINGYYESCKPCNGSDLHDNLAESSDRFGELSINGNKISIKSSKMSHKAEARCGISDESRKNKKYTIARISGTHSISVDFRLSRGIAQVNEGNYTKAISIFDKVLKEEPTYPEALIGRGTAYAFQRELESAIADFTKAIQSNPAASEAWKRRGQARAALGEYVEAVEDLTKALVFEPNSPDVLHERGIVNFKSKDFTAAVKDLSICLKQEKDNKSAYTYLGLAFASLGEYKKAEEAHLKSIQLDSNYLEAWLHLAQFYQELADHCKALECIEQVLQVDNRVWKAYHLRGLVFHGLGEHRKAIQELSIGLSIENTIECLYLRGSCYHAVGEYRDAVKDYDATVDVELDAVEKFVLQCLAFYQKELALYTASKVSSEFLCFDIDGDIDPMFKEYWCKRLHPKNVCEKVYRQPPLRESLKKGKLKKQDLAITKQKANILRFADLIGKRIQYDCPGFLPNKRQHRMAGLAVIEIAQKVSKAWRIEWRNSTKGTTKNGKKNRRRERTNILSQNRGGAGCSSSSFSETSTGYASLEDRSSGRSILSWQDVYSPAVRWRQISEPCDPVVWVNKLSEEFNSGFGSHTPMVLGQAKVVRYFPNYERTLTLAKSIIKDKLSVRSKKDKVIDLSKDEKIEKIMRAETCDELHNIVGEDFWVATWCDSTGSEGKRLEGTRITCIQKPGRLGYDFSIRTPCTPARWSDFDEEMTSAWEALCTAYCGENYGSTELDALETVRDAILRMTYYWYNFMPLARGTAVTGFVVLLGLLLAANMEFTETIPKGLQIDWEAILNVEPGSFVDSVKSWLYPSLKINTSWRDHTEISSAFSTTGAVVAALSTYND

[2] = molecular target: T2, HA-PAD4 (Arabidopsis thaliana) (UniProt Q9S745); experiment: co-IP; co-expression in agro-infiltrated N. benthamiana leaves, 48 h; RIPA buffer; lysate precleared with IgG agarose; anti-HA-conjugated beads, 3 h at 4°C; blots with anti-HA and anti-Myc
T2 sequence: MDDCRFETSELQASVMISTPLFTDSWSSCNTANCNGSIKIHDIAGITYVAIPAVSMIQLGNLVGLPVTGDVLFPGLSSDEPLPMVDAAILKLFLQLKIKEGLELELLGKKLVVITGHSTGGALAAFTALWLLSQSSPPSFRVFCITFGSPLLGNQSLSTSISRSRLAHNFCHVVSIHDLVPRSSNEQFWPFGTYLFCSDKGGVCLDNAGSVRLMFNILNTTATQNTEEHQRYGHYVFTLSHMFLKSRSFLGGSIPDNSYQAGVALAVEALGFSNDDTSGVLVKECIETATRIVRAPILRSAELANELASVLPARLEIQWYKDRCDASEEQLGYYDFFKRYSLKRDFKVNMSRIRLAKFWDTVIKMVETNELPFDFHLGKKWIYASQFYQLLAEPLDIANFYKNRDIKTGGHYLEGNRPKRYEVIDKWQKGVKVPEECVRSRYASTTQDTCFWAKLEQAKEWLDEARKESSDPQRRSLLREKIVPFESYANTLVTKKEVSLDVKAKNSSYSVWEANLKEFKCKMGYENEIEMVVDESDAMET

[3] = molecular target: T3, HA-SRFR1 (Arabidopsis thaliana) (UniProt F4JS25); experiment: as above
T3 sequence: T1 sequence

- binding [1]: no binding
Molecule: cCFP-GUS (β-glucuronidase), negative control (from UniProt P05804 1-603) (enzyme)

- binding [2]: binds
- binding [3]: binds
B1: Myc-EDS1^WT (protein, UniProt Q9XF23 1-623)
chain: MAFEALTGINGDLITRSWSASKQAYLTERYHKEEAGAVVIFAFQPSFSEKDFFDPDNKSSFGEIKLNRVQFPCMRKIGKGDVATVNEAFLKNLEAVIDPRTSFQASVEMAVRSRKQIVFTGHSSGGATAILATVWYLEKYFIRNPNVYLEPRCVTFGAPLVGDSIFSHALGREKWSRFFVNFVTRFDIVPRITLARKASVEETLPHVLAQLDPRNSSVQESEQRITEFYTSVMRDTSTVANQAVCELTGSAEAILETLSSFLELSPYRPAGTFVFSTEKRLVAVNNSDAILQMLFYTCQASDEQEWSLIPFRSIRDHHSYEELVQSMGMKLFNHLDGENSIESSLNDLGVSTRGRQYVQAALEEEKKRVENQKKIIQVIQQERFLKKLAWIEDEYKPKCQAHKNGYYDSFKVSNEENDFKANVKRAELAGVFDEVLGLLKKCQLPDEFEGDIDWIKLATRYRRLVEPLDIANYHRHLKNEDTGPYMKRGRPTRYIYAQRGYEHHILKPNGMIAEDVFWNKVNGLNLGLQLEEIQETLKNSGSECGSCFWAEVEELKGKPYEEVEVRVKTLEGMLREWITAGEVDEKEIFLEGSTFRKWWITLPKNHKSHSPLRDYMMDEITDT

- binding [2]: binds
- binding [3]: no binding
B2: Myc-EDS1^K478R (protein, UniProt Q9XF23 1-623)
chain: B1 chain with K478R
